# ChEMBL document CHEMBL5606458, “ASAP - ZIKV NS2B-NS3 protease fluorescence single point” (2024)
# Hit rate of the full screen: of about 2,700 compounds, about 160 (5.9%) showed an effect of 50% or more. The list shows a part of the results.
# Biological target: Nonstructural protein 3 (Zika virus) (UniProt A0A024AXB9)
# [1] = PRVABC59, Concentration 15.0 uM, Number of replicates 1.0
# [2] = PRVABC59, Concentration 50.0 uM, Number of replicates 1.0
# Sequence of UniProt A0A024AXB9 (A0A024AXB9 as listed by the source): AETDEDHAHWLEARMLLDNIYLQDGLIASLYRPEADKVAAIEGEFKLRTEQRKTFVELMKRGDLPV
structure (smiles),measurement,setting,value
CC(C)Cn1cccc(C(=O)Nc2ccncc2C2CC2)c1=O,inhibition,"PRVABC59, Concentration 49.5 uM, Number of replicates 2.0, Standard deviation 1.782572076640321 %",1.22%
same,inhibition,"PRVABC59, Concentration 99.01 uM, Number of replicates 2.0, Standard deviation 2.7801764853402515 %",0.021%
O=C(c1cc(Cl)ccc1NS(=O)(=O)c1ccc(Oc2ccccc2Cl)cc1)N1CCN(CCc2cccs2)CC1,inhibition,[1],13.3%
Cn1cc(NC(=O)c2ccccc2C(F)(F)F)c(C=Cc2cc(F)cc(F)c2)n1,inhibition,"PRVABC59, Concentration 49.5 uM, Number of replicates 2.0, Standard deviation 0.37053351292134273 %",-8.84%
COCCOCCOCCNC(=O)C1CCN(c2ccc(C=O)cc2)CC1,inhibition,[2],19.5%
CNC(=O)c1cccc(CCC(=O)Nc2cc(Cl)cc(C(=O)NC(C)(C)CO)c2)c1,inhibition,"PRVABC59, Concentration 49.5 uM, Number of replicates 2.0, Standard deviation 2.0103235412862617 %",-0.511%
same,inhibition,"PRVABC59, Concentration 99.01 uM, Number of replicates 2.0, Standard deviation 1.7876352618456317 %",1.07%
same,inhibition,"PRVABC59, Concentration 198.0 uM, Number of replicates 2.0, Standard deviation 1.8938720095849042 %",2.74%
Cc1nnc(Cn2cc(C3CCNCC3)c(C)n2)s1,inhibition,"PRVABC59, Concentration 49.5 uM, Number of replicates 2.0, Standard deviation 1.0377307689033486 %",-2.31%
same,inhibition,"PRVABC59, Concentration 99.01 uM, Number of replicates 2.0, Standard deviation 0.8554546685193132 %",-2.22%
same,inhibition,"PRVABC59, Concentration 198.0 uM, Number of replicates 2.0, Standard deviation 2.3426614305977584 %",-2.93%
Cc1cc(CO)c2cccc(Cc3ccccc3C(=O)Nc3nonc3C(N)=O)c2n1,inhibition,"PRVABC59, Concentration 49.95 uM, Number of replicates 2.0, Standard deviation 0.12584307180819165 %",-4.45%
same,inhibition,"PRVABC59, Concentration 99.9 uM, Number of replicates 2.0, Standard deviation 0.39850300453014226 %",-1.53%
O=C(N[C@H]1CCc2ccccc2NC1=O)c1cc(Cl)ccc1NS(=O)(=O)c1ccc(Oc2ccccc2Cl)cc1,inhibition,[1],27.7%
O=Cc1ccc(N2CCC(C(=O)NCc3ccc([N+](=O)[O-])cc3)CC2)cc1,inhibition,"PRVABC59, Concentration 10.0 uM, Number of replicates 1.0",12.3%
C[C@H]1c2cc(O)c(O)cc2CCN1C(=O)c1cc(Cl)ccc1NS(=O)(=O)c1ccc(Oc2ccccc2Cl)cc1,inhibition,[1],32.3%
Cc1nc([C@H]2CCCNC2)[nH]c1C(=O)N1CCO[C@H](c2ccccc2)C1,inhibition,"PRVABC59, Concentration 49.5 uM, Number of replicates 2.0, Standard deviation 0.6026884486895654 %",-0.605%
same,inhibition,"PRVABC59, Concentration 99.01 uM, Number of replicates 2.0, Standard deviation 0.7048390067821461 %",0.943%
same,inhibition,"PRVABC59, Concentration 198.0 uM, Number of replicates 2.0, Standard deviation 0.8764519755663496 %",3.13%
O=C(c1cc(Cl)ccc1NS(=O)(=O)c1ccc(Oc2ccccc2Cl)cc1)N1CCN(Cc2c(F)cccc2Cl)CC1,inhibition,[1],14.4%
O=Cc1ccc(N2CCC(C(=O)N3CCC(Oc4ncccn4)CC3)CC2)cc1,inhibition,[2],25.2%
CCn1ccnc(N[C@@H](Cc2c[nH]c3ccccc23)C(=O)OC)c1=O,inhibition,"PRVABC59, Concentration 49.5 uM, Number of replicates 2.0, Standard deviation 1.8174652944718082 %",0.373%
same,inhibition,"PRVABC59, Concentration 99.01 uM, Number of replicates 2.0, Standard deviation 2.0661171600233468 %",2.71%
same,inhibition,"PRVABC59, Concentration 198.0 uM, Number of replicates 2.0, Standard deviation 1.958453456970753 %",6.79%
COc1ncc(NC(=O)C2CCN(c3ccc(C=O)cc3)CC2)cc1Br,inhibition,[2],14.4%
CNC(=O)c1cc(Cl)ccc1NS(=O)(=O)c1cccc(S(N)(=O)=O)c1,inhibition,"PRVABC59, Concentration 49.5 uM, Number of replicates 2.0, Standard deviation 1.9770878431028747 %",2.91%
same,inhibition,"PRVABC59, Concentration 99.01 uM, Number of replicates 2.0, Standard deviation 3.7643425715900136 %",6.13%
same,inhibition,"PRVABC59, Concentration 198.0 uM, Number of replicates 2.0, Standard deviation 0.1353062194106457 %",8.68%
Cc1cc(CO)c2cccc(Cc3cccc(NC(=O)C(=O)c4ccco4)c3)c2n1,inhibition,"PRVABC59, Concentration 49.95 uM, Number of replicates 2.0, Standard deviation 0.11706202880203795 %",-4.83%
same,inhibition,"PRVABC59, Concentration 99.9 uM, Number of replicates 2.0, Standard deviation 0.9670358368472974 %",-5.47%
O=C(c1cc(Cl)ccc1NS(=O)(=O)c1ccc(Oc2ccccc2Cl)cc1)N1CCC(c2nc3ccccc3s2)CC1,inhibition,[1],30.2%
O=Cc1ccc(N2CCC(C(=O)Nc3ccc(F)cc3Br)CC2)cc1,inhibition,[2],20.8%
N#Cc1ccc(C[C@H](NC(=O)c2ccccc2)C(=O)N2CCC[C@@H](CN)C2)cc1,inhibition,"PRVABC59, Concentration 49.5 uM, Number of replicates 2.0, Standard deviation 1.3811454822062357 %",-2.13%
same,inhibition,"PRVABC59, Concentration 99.01 uM, Number of replicates 2.0, Standard deviation 1.0154897083567558 %",-2.19%
same,inhibition,"PRVABC59, Concentration 198.0 uM, Number of replicates 2.0, Standard deviation 0.42527358688620087 %",-2.27%
CNC(=O)c1cc(Cl)ccc1NS(=O)(=O)c1[nH]ncc1C(=O)OC,inhibition,"PRVABC59, Concentration 49.5 uM, Number of replicates 2.0, Standard deviation 0.699448193049936 %",-2.72%
same,inhibition,"PRVABC59, Concentration 99.01 uM, Number of replicates 2.0, Standard deviation 0.3092514894243207 %",-1.35%
same,inhibition,"PRVABC59, Concentration 198.0 uM, Number of replicates 2.0, Standard deviation 0.6268051493620144 %",-0.933%
Cn1cc(NC(=O)c2ccccc2C(F)(F)F)c(-c2cccc3cc[nH]c23)n1,inhibition,"PRVABC59, Concentration 49.5 uM, Number of replicates 2.0, Standard deviation 2.122471500433021 %",-1.02%
same,inhibition,"PRVABC59, Concentration 99.01 uM, Number of replicates 2.0, Standard deviation 2.8581416433973104 %",1.63%
same,inhibition,"PRVABC59, Concentration 198.0 uM, Number of replicates 2.0, Standard deviation 2.3832837433043164 %",4.85%
CCOc1ccccc1CNC(=O)c1cc(Cl)ccc1NS(=O)(=O)c1ccc(Oc2ccccc2Cl)cc1,inhibition,[1],18.6%
